# Experimental data reported in ChEMBL document CHEMBL4888484, “Replenishing the malaria drug discovery pipeline: Screening and hit evaluation of the MMV Hit Generation Library 1 (HGL1) against asexual blood stage Plasmodium falciparum ,using a nano luciferase reporter read-out” (2022).
# The whole screen tested about 150,000 compounds, of which about 540 (0.36%) showed an effect of 50% or more. The list shows a part of the results.
# Test system: Plasmodium falciparum
# Assay: Primary screen in NF54 nanoGlo assay, in single point, at 2uM, 72h; a lower Z score goes with more inhibition
# Assay type: functional, Erythrocyte
# Conditions: timepoint 72 hour
SMILES,% Inhibition,Z score
N=C1CCCN1c1c(Cl)cccc1Cl,39%,-5.71
CCn1ncc2c1CCCC2NC(C)c1nc(C2CC2)no1 (stereo not given),-8%,0.96
CN(C(=O)c1scc2c1CCCC2)[C@H]1COC[C@@H]1O,-9%,1.46
Cc1noc(OCc2cccc3cccnc23)n1,-14%,1.94
CCOC1CC(NC(=O)CCCn2ccnc2)C12CCCC2 (stereo not given),-17%,1.83
Cc1nc([C@H]2CCCN2C(=O)NC2CCCc3nn(C)cc32)cs1 (stereo not given in full),-33%,3.93
CCn1nccc1S(=O)(=O)N1CCOc2ccc(OC)cc21,-4%,0.88
CC(C)c1ccc([C@H](CCO)NC(=O)c2ccc(-n3cnnc3)nc2)cc1,-11%,1.38
O=C(NCCc1nc(C(F)(F)F)cs1)[C@@H]1CCCN[C@@H]1C1CC1,11%,-1.38
COc1cccc([C@@H](C)NC(=O)c2cc(COc3ccc(F)c(F)c3)on2)c1,-11%,1.23
CC1(C)C(NC(=O)c2ccccc2OCC2CC2)C2CCOC21 (stereo not given),-2%,0.28
C[C@]1(c2nc(Cn3cc(Br)cn3)no2)CCNC(=O)C1,1%,-0.18
O=C(NS(=O)(=O)c1cnc2n1CCC2)c1cnn(Cc2ccccc2)c1,-4%,0.52
COC(=O)[C@]1(C)CN(C(C)C(=O)NCc2ccccc2)C[C@H]1C (stereo not given in full),4%,-0.51
O=C(Cn1c2c(c(=O)n3nc(-c4ccccc4)nc13)CCC2)Nc1ccccc1,-3%,0.42
CCN(C[C@H]1CCCCO1)c1nnnn1-c1ccccc1,-2%,0.31
O=C1NC2(CCN(S(=O)(=O)c3cccc(C(F)(F)F)c3)CC2)N=C1c1cccc(Cl)c1,0%,-0.03
C[C@@H](c1ccc2c(c1)CCC2)S(=O)(=O)Cc1ccn(C)n1,2%,-0.35
c1ccc2c(c1)CCN(Cc1csc3c1CCCC3)C2,-9%,0.85
CCNC(=O)CN(CC)C(=O)c1ccsc1,-6%,0.64
CCOc1ncccc1CNC(=O)c1cccn1C,-8%,1.5
CC(C)c1nnc(NS(=O)(=O)CC2CCCC2)s1,-12%,1.23

SMILES,% Inhibition,Z score
O=C(NCc1ccco1)c1ccc2c(c1)OCO2,40%,-4.48
CC(C)(C)OC(=O)C1CCC(C(=O)O)CN1C(=O)OC(C)(C)C (stereo not given),-3%,0.42
Cc1ccccc1C(CN1CCOCC1)NCC1CCCO1 (stereo not given),-12%,1.51
CCN1CCN(c2c(CN(CCOC)C(=O)COCc3ccccc3)c(C)nn2-c2cccc(F)c2)CC1,9%,-1.51
C[C@H]1CC(=O)N(Cc2nc(-c3c(F)cccc3F)cs2)C1=O,7%,-0.71
COc1ccc(S(=O)(=O)N2CC3CN(C(=O)c4cc(C)oc4C)CC(C2)O3)cc1,-13%,1.15
C[C@@H]1CN(Cc2ccccc2)CCN1Cn1nc2c(cc1=O)CCC2,-2%,0.26
CCOC(=O)N1CCN(C(=O)C2C3C(=O)N(c4nc5cc(OC)ccc5s4)C[C@]34C=C[C@H]2O4)CC1 (stereo not given in full),0%,0.05
CC(C)(C)NCCN1CCn2c1nc1ccccc12,-12%,1.8
C#CCN(CC#CC)C(=O)Nc1cccnc1,-3%,0.49
Cc1cccc(OCc2nc(CN(C(=O)c3ccccc3F)C3CC3)cs2)c1,-3%,0.3
C=CCC1(OCc2ccccc2)CCN(C(=O)CN2CCCC2=O)CC1,-13%,2.36
CCCCN1CCN(C(=O)Cc2cc(F)ccc2C)CC1=O,1%,-0.16
C[C@@H](Cc1ccccc1)CN(CCO)c1ccccc1,-4%,0.47
O=C(Nc1nnc[nH]1)c1ccc2c(c1)CCCC2,-9%,0.86
O=C(Cn1ccc2ccccc21)N1CC[C@H](n2ccnn2)C1,-14%,1.81
O=C(CCc1ncc(-c2ccccc2)o1)Oc1ccc(N2CCCC2=O)cc1,0%,0
Cc1[nH]c(C)c(S(=O)(=O)NCc2ccco2)c1-c1nnc(C2CCC2)o1,-20%,3.95
Cc1ccc2c(c1)CC[C@@H](C(=O)Nc1cc(C)cn(C)c1=O)O2,-7%,1.12
O=C(Nc1nc2c(s1)CN(C(=O)c1cc(-c3ccc(F)cc3)n[nH]1)CC2)c1ccco1,-17%,2.74
CCOC(=O)N1CCC(NC(=O)[C@H]2CC23CCN(Cc2ccc(OC)c(OC)c2Cl)CC3)CC1,-6%,0.77
C#Cc1cccc(NCc2cc(=O)n3ccccc3n2)c1,-11%,1.84

SMILES,% Inhibition,Z score
COC[C@@]12CN(C(C)=O)CC[C@@H]1CN(S(=O)(=O)c1ccccc1F)C2,-7%,0.8
CN(C)c1ccc(NC(=O)c2cccs2)cc1CN(CC1CC1)C(=O)c1cccs1,11%,-1.28
CC(=O)Nc1ccc(C(=O)OC(C)C)cc1,7%,-0.98
CC1CN(C(=O)CCC(O)c2ccc3c(c2)CCC(=O)N3)CC(C)O1 (stereo not given),-7%,0.78
O=C(O)[C@H]1CN(Cc2ccc3occc3c2)C[C@@H]1c1ccccn1,-10%,1.33
O=C(NC(C1CC1)C1CC1)c1cc(C2CC2)on1,2%,-0.22
O=C(Nc1nc(C2CC2)cs1)N1CCCC1,-15%,1.82
Cc1c(CN(C)C(=O)NC[C@H]2CCOC(C)(C)C2)cnn1C,3%,-0.35
Cc1nc(CNC(=O)[C@H]2CCCN(Cc3ccco3)C2)sc1C,-6%,0.71
Cc1nonc1CNC(=O)C1(N2CCOCC2)CCCCC1,-5%,0.66
CN(C)c1ccc(S(=O)(=O)Nc2ccc(C(C)(C)C(=O)O)cc2)cc1,2%,-0.29
Cc1nc(C)c(C(=O)N2CCC3(CCC(=O)N(CC4CC4)C3)CC2)o1,-10%,0.9
Cc1cccc(N2CCN(C(=O)CN3CCN(Cc4ccc(Cl)cc4)C3=O)C[C@@H]2C)c1,39%,-5.19
C[C@@H](CCNC(=O)N(C)Cc1nc2ccc(F)cc2[nH]1)N1CCN(C)CC1,-14%,2.61
COc1ccc(C(=O)Nc2cc(C(C)C)c(O)c(S(=O)(=O)c3ccccc3)c2C)cc1,-4%,0.51
O=S(=O)(C[n+]1sc(N(c2ccccc2)c2ccccc2)nc1-c1ccccc1)c1ccccc1,4%,-0.67
CCOCC1CCN(Cc2cc(C#N)c(C)[nH]2)CC1,-5%,0.64
C[C@@]1(C(=O)NCc2ccc(F)cc2)Cn2cnc(C(=O)NC3CC3)c2C(=O)N1C1CC1,-2%,0.21
CC#CCNC(=O)Nc1ccc(C(C)(C)C#N)cc1,-5%,0.43
CCc1ccc(C(=O)NCC2(COC)CCC2)s1,-5%,0.7
c1nc2ccc(-c3ccc4c(c3)OCO4)cc2[nH]1,2%,-0.29
Cc1ccc(-c2noc(-c3ccc(N4CCN(Cc5ccc6c(c5)OCO6)CC4)nc3)n2)cc1,-5%,0.57

SMILES,% Inhibition,Z score
C=C(C)CN(CC)C(=O)C1(N2CCN(CC)CC2)Cc2ccccc2C1,-8%,1.1
O=C(Nc1cc(C2CCCC2)[nH]n1)c1ccn(CCn2cccn2)n1,9%,-1.43
COc1cc(F)c([C@@H]2c3nc[nH]c3CCN2Cc2nccn2C)cc1OC,-7%,1.29
O=C(Nc1ccc(Cl)cn1)C(F)(F)OC(F)(F)C(F)(F)OC(F)(F)C(F)(F)OC(F)(F)F,30%,-3.85
CCc1nc(-c2ccc(NC(=O)C(C)C)cc2)n(C)n1,-13%,2.09
COCCn1c(=O)c2c(ncn2Cc2cccc(C#N)c2)n(-c2ccccc2OC)c1=O,-17%,1.51
Nc1ccc(S(=O)(=O)N2CCC[C@H](n3cccn3)C2)cc1,-17%,1.75
CCCN(CCC)C(=O)c1ccccc1Br,-5%,0.99
CN(CC1CC1)S(=O)(=O)NCCc1ccccc1C(F)(F)F,-2%,0.28
CCC(C)(C)CN1CCC(OC(C)(C)C)CC1,1%,-0.14
CC(C)[C@H]1C[C@@H]1NC(=O)N1CCNC(=O)CC1,-7%,1.08
COc1ccc(CCC(=O)Nc2cnc(-c3ccc(C)cc3)nc2)cc1,-22%,3.47
Cc1nnc(CCNc2ccnc(C(=O)NCc3ccncc3)c2)s1,-4%,0.64
CCNC(=O)[C@@H]1C[C@@H](N)CN1C(=O)CCCC1CCCCC1,13%,-1.72
C=C(C)CN(CC)c1nnnn1CC1CC2CCC(C1)S2(=O)=O (stereo not given),2%,-0.15
CCN1CCN(C(=O)[C@H](C)N(C)Cc2cnccn2)CC1,-19%,1.99
CCOC(=O)CCNCc1cccnc1,2%,-0.24
Cn1nc(C(=O)N2[C@H]3CCNC[C@@H]2CC3)cc1C(F)(F)F,-14%,2.78
O=C(Cc1cccc(Cl)c1)NC[C@@]12CNC[C@]1(C(F)(F)F)C2,-4%,0.55
